Laboratory results: the supplement of paper PMC4967469
A lower IC50 marks a more sensitive line; a fit beyond the top or the lowest dose is shown as a bound at that dose. For AUC the same curve is integrated over the 256-fold range of doses and scaled to a fraction; the more sensitive the line, the further below 1. For some of these results: The top dose, if marked as inferred, comes from the curve model; the source does not state it.

Key:
Assay in all cases: Viability of human cancer cell lines after 72 h of drug (GDSC screen)
CI-1040 = compound: O=C(NOCC1CC1)c1ccc(F)c(F)c1Nc1ccc(I)cc1Cl [CI-1040]; conditions: top dose 10 µM; top dose inferred
Experimental: (§1)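 Human cancer cell lines in 384-well plates, medium with 10% serum, drug for 72 h over a 256-fold dose range (nine 2-fold or five 4-fold steps up to the top dose). Adherent lines were fixed and stained with the nucleic acid dye Syto60, suspension lines read with resazurin; signal relative to control wells, capped at 0 and 100%. One two-parameter sigmoid per drug and line, fitted in a mixed model over all curves with the slope shared within a line.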

ZG-10 = compound: CN(C)C/C=C/C(=O)Nc1ccc(C(=O)Nc2cccc(Nc3nccc(-c4cccnc4)n3)c2)cc1 [ZG-10]; conditions: top dose 10 µM; top dose inferred
Experimental: as §1

Temozolomide = compound: Cn1nnc2c(C(N)=O)ncn2c1=O [Temozolomide]; conditions: top dose 30 µM
Experimental: as §1

XL-880 = compound: COc1cc2c(Oc3ccc(NC(=O)C4(C(=O)Nc5ccc(F)cc5)CC4)cc3F)ccnc2cc1OCCCN1CCOCC1 [XL-880]; conditions: top dose 5.12 µM; top dose inferred
Experimental: as §1

Tubastatin A = compound: CN1CCc2c(c3ccccc3n2Cc2ccc(C(=O)NO)cc2)C1 [Tubastatin A]; conditions: top dose 20 µM
Experimental: as §1

IPA-3 = compound: Oc1ccc2ccccc2c1SSc1c(O)ccc2ccccc12 [IPA-3]; conditions: top dose 32 µM; top dose inferred
Experimental: as §1

Z-LLNle-CHO = compound: CCCC[C@@H](C=O)NC(=O)[C@H](CC(C)C)NC(=O)[C@H](CC(C)C)NC(=O)OCc1ccccc1 [Z-LLNle-CHO]; conditions: top dose 2.56 µM; top dose inferred
Experimental: as §1

JW-7-52-1 = compound: CCC(=O)N1CCN(c2ccc(-n3c(=O)ccc4cnc5ccc(-c6cnc7ccccc7c6)cc5c43)cc2C(F)(F)F)CC1 [JW-7-52-1]; conditions: top dose 1.2 µM; top dose inferred
Experimental: as §1

| Cell Line | AUC (CI-1040) | IC50 (CI-1040) | AUC (ZG-10) | IC50 (ZG-10) | AUC (Temozolomide) | IC50 (Temozolomide) | AUC (XL-880) | IC50 (XL-880) | AUC (Tubastatin A) | IC50 (Tubastatin A) | AUC (IPA-3) | IC50 (IPA-3) | AUC (Z-LLNle-CHO) | IC50 (Z-LLNle-CHO) | AUC (JW-7-52-1) | IC50 (JW-7-52-1) |
| --- | --- | --- | --- | --- | --- | --- | --- | --- | --- | --- | --- | --- | --- | --- | --- | --- |
| ABC-1 (lung adenocarcinoma, adherent) | 0.863 | > 10 µM | 0.689 | 2.38 µM | 0.974 | > 30 µM | 0.67 | 1.06 µM | 0.966 | > 20 µM | 0.955 | > 32 µM | – | – | – | – |
| HCC1428 (breast, adherent) | 0.937 | > 10 µM | 0.844 | 8.15 µM | 0.986 | > 30 µM | 0.986 | > 5.12 µM | 0.973 | > 20 µM | 0.987 | > 32 µM | – | – | – | – |
| Calu-3 (lung adenocarcinoma, adherent) | 0.9 | > 10 µM | 0.896 | > 10 µM | 0.974 | > 30 µM | 0.849 | > 5.12 µM | 0.959 | > 20 µM | 0.98 | > 32 µM | – | – | – | – |
| NCI-H441 (lung adenocarcinoma, adherent) | 0.89 | > 10 µM | 0.799 | 7.31 µM | 0.926 | > 30 µM | 0.823 | 4.84 µM | 0.974 | > 20 µM | 0.831 | > 32 µM | – | – | – | – |
| NCI-H810 (large cell lung carcinoma, adherent) | 0.972 | > 10 µM | 0.66 | 1.71 µM | 0.923 | > 30 µM | 0.504 | 0.329 µM | 0.686 | 4.04 µM | 0.868 | 27.1 µM | – | – | – | – |
| SCH (stomach, adherent) | 0.978 | > 10 µM | – | – | 0.94 | > 30 µM | 0.807 | 2.89 µM | 0.988 | > 20 µM | 0.986 | > 32 µM | 0.936 | > 2.56 µM | 0.59 | 0.135 µM |
| MOG-G-UVW (glioma, adherent) | 0.825 | 5.8 µM | 0.706 | 2.33 µM | 0.933 | > 30 µM | 0.587 | 0.551 µM | 0.94 | > 20 µM | 0.965 | > 32 µM | – | – | – | – |
| LCLC-97TM1 (large cell lung carcinoma, adherent) | 0.649 | 1.69 µM | 0.688 | 2.23 µM | 0.98 | > 30 µM | 0.56 | 0.475 µM | 0.832 | 14.5 µM | 0.866 | > 32 µM | – | – | – | – |
| HCC38 (breast, adherent) | 0.945 | > 10 µM | 0.83 | 6.96 µM | 0.985 | > 30 µM | 0.626 | 0.734 µM | 0.91 | > 20 µM | 0.976 | > 32 µM | – | – | – | – |
| OVKATE (ovary, adherent) | 0.881 | > 10 µM | 0.889 | > 10 µM | 0.977 | > 30 µM | 0.684 | 1.49 µM | 0.946 | > 20 µM | 0.979 | > 32 µM | – | – | – | – |
| Capan-2 (pancreas, adherent) | 0.816 | 7.1 µM | 0.799 | 6 µM | 0.983 | > 30 µM | 0.656 | 0.954 µM | 0.978 | > 20 µM | 0.937 | > 32 µM | – | – | – | – |
| NCI-H650 (lung adenocarcinoma, adherent) | 0.932 | > 10 µM | 0.81 | 5.91 µM | 0.985 | > 30 µM | 0.761 | 2 µM | 0.964 | > 20 µM | 0.796 | 16.7 µM | – | – | – | – |
| LS-411N (large intestine, adherent) | 0.615 | 1.39 µM | – | – | 0.979 | > 30 µM | 0.642 | 0.863 µM | 0.9 | > 20 µM | 0.976 | > 32 µM | 0.776 | 1.25 µM | 0.377 | 0.0319 µM |
| RCM-1 (large intestine, adherent) | 0.601 | 1.26 µM | 0.886 | > 10 µM | 0.983 | > 30 µM | 0.863 | > 5.12 µM | 0.985 | > 20 µM | 0.984 | > 32 µM | – | – | – | – |
| SW626 (ovary, adherent) | 0.749 | 3.78 µM | 0.739 | 3.47 µM | 0.981 | > 30 µM | 0.674 | 1.08 µM | 0.949 | > 20 µM | 0.793 | 17.7 µM | – | – | – | – |
| COLO-783 (melanoma, adherent) | 0.683 | 1.99 µM | 0.838 | 6.41 µM | 0.99 | > 30 µM | 0.97 | > 5.12 µM | 0.988 | > 20 µM | 0.964 | > 32 µM | – | – | – | – |
| CAL-62 (thyroid, adherent) | 0.608 | 1.22 µM | 0.581 | 1.03 µM | 0.975 | > 30 µM | 0.826 | 2.89 µM | 0.948 | > 20 µM | 0.767 | 11.3 µM | – | – | – | – |
| NCI-H1563 (lung adenocarcinoma, adherent) | 0.891 | > 10 µM | 0.816 | 6.89 µM | 0.983 | > 30 µM | 0.77 | 2.31 µM | 0.981 | > 20 µM | 0.985 | > 32 µM | – | – | – | – |
| H513 (mesothelioma, semi-adherent) | 0.935 | > 10 µM | 0.972 | > 10 µM | 0.984 | > 30 µM | 0.983 | > 5.12 µM | 0.986 | > 20 µM | 0.984 | > 32 µM | – | – | – | – |
| CaR-1 (large intestine, adherent) | 0.89 | > 10 µM | 0.755 | 5.06 µM | 0.971 | > 30 µM | 0.754 | 2.58 µM | 0.976 | > 20 µM | 0.978 | > 32 µM | – | – | – | – |
| DBTRG-05MG (glioma, adherent) | 0.744 | 3.58 µM | 0.792 | 5.43 µM | 0.976 | > 30 µM | 0.66 | 0.964 µM | 0.973 | > 20 µM | 0.85 | 30.8 µM | – | – | – | – |
